Publication PMC12136788
Some of the results follow.

B1: chr11:87793471:87793472:-_ENSMUSG00000020483_ENSMUST00000020775|mus_mus|mus_mus_mus_hu_False|1_1 (ssRNA)
RNA: GGGAGUUCUACAGUCCGACGAUCUGGACUUGAAAAUAAAAGAAUAAGCUGGAUCCCCCACCCCCCCACAUUGUCAACCCUACACGAGAGUUUUGAAGGCGACUCAUGAAAAUCAGCAGCUCAAACGGCAAUGACCACCCACCCCAACAGAGGAUUGAGCAUCA
B2: chr3:183368427:183368428:+_ENSG00000114796_ENST00000454652|hu_hu|FALSE|FALSE (ssRNA)
RNA: GGGAGUUCUACAGUCCGACGAUCAACCAACAUUUCUCGGCUUUCCCUGUGGUCAUUACAAAACAUAGCUCUGAAGUAGCUGCUACAGGCUGAGAGCACAGCUCUAUGGCAAGGAAAUUCUUUUCCUUCCACACAAAUGAUAACCAACAGAGGAUUGAGCAUCA
B3: chr11:51804979:51804980:-_ENSMUSG00000020390_ENSMUST00000020657|mus_hu|motif|central (ssRNA)
RNA: GGGAGUUCUACAGUCCGACGAUCGAUAAAAACCUAACAGUUGGUGGUUUAUUUGGAUAUUCUUCAGAAAAUUCUAUUACGGGUUUAAAAGUACCAUCUUCAAAAGGUGUCCCUUCUGGUCCAAAUAUAACUGCAUUCCACUGCCAACAGAGGAUUGAGCAUCA
B4: chr2:198351390:198351391:-_ENSG00000144381_ENST00000345042|hu_mus|FALSE|FALSE (ssRNA)
RNA: GGGAGUUCUACAGUCCGACGAUCUCAUUCCCACCCUCCACAGAAAGGCUGCUUCUGAACUCUCAUGUGGUGACACAGCGCUACAGUCCUGAUGCUCACAGAACAGUAGAGAUGCCUCAGUGAUUUAAGUUGAAAGCAGGACACCAACAGAGGAUUGAGCAUCA
B5: chr2:172291668:172291669:+_ENSG00000115827_ENST00000375255|hu_hu|FALSE|FALSE (ssRNA)
RNA: GGGAGUUCUACAGUCCGACGAUCAACACUGCUGACACAGCGCCGAUAAUUGUCAAAAUAUAUUCUUCCUCUCUCAUAGGCUAUAGGUGACCUGGAAUGAGUUGUCCAGACAUUCUUAAAUUUAGUACUUUCCUGGCACACCAGCAACAGAGGAUUGAGCAUCA
B6: 112350797_112352857_1905_CDS_ENSG00000108055_ENST00000361804|human|control|control (ssRNA)
RNA: GGGAGUUCUACAGUCCGACGAUCCAGUUUGCUGAUCAUAGGAAUAGCAUCAUUGGUUUCAGGAUAGGCUGUAUCCCUGACAUCUAACUUGUUAAGAGGCAGAAAAGUAACCUCUCCAGGAAGAUUCAUUUUAUUAAACUCCAUCAACAGAGGAUUGAGCAUCA
B7: 43138715_43159018_96_CDS_ENSG00000136448_ENST00000258960|human|control|control (ssRNA)
RNA: GGGAGUUCUACAGUCCGACGAUCCAAACCACCCCGGUUGUAGCUGUUGUCCUCCUCAUUCUCGCAAUCGCUGCAGUGCUCAUGGCCGUUCCCGUUCCCUUCCAUCAUCUGCGGCAGCGGAGGUGCCGGCGGCUUCACUGCUGUCAACAGAGGAUUGAGCAUCA
B8: 48405545_48405665_187_5pUTR_ENSG00000082212_ENST00000321341|human|control|control (ssRNA)
RNA: GGGAGUUCUACAGUCCGACGAUCCCGCGACAGGUGGUACACCCGGCGGAGAGGCCGCGCCCUGCCGCCCGCCCUGGCGAUGCUCAGCUCCCGCGCCGCCCGGCCCUCCCCUUCUGCGAGCCUCCCGGAGCCGCCGUCAGCUCACAACAGAGGAUUGAGCAUCA
B9: 32238706_32238826_741_3pUTR_ENSMUSG00000035764_ENSMUST00000042732|mouse|control|control (ssRNA)
RNA: GGGAGUUCUACAGUCCGACGAUCCACUGAAACCAAUCUUGGUCCUUGCACCAUCAGUGCUCUGAGCGAUGGGGUUCCGAUGUAAUGUAAAACCAUUCUUCUUGAUAUAGACAUUCCUGGAGCAGUCAUUCGUGCUGAAGGCAUCAACAGAGGAUUGAGCAUCA
B10: chr1:25551555:25551556:-_ENSG00000117614_ENST00000236273|hu_mus|FALSE|FALSE (ssRNA)
RNA: GGGAGUUCUACAGUCCGACGAUCUAAAACCAUUCUGUCAAUUUCCUCUGAGGAAGGCACGUGCGUCCCAUGGAGAAGACUGUUGGAUGUUGGGAAAAAAUCUUCUCCAUGCUUCUCUCUCUGUCGCUCAUAGCUUUCCAUGUCCAACAGAGGAUUGAGCAUCA
B11: chr16:57198444:57198445:-_ENSMUSG00000022749_ENSMUST00000023431|mus_mus|FALSE|FALSE (ssRNA)
RNA: GGGAGUUCUACAGUCCGACGAUCCCUAAAAGAAGCUGGCGUCUUACUACAGUAAUACUGAGCCAAAGAGAACAGGUCUUCUAUGUCUUCCAGAUUCAGGCUGGCCGGGGUACUUUCCAAAAAGCGGAUAACUUCUUCUUUGCUCAACAGAGGAUUGAGCAUCA
B12: chr10:122565287:122565288:-_ENSMUSG00000020124_ENSMUST00000020334|mus_hu|FALSE|FALSE (ssRNA)
RNA: GGGAGUUCUACAGUCCGACGAUCAAUUUUGGGGACAACCACUUUGUACUGCAUAGGUUUGGUAAGUGGAUCCAUUCUAACUAAGUAAACUUCCAAGGUGCGUUCUUUUUUCAUGGGCAAUGGAAGUGUCAAGUAACAAAAAGGCAACAGAGGAUUGAGCAUCA
B13: chr11:90138519:90138520:+_ENSMUSG00000003948_ENSMUST00000004050|mus_mus|FALSE|FALSE (ssRNA)
RNA: GGGAGUUCUACAGUCCGACGAUCUUGGGUUUUCUUAAAAAGGAAGUUGUAUUACUAUUGCACUGACUUUGACAACCUGACCUACUUAAUUUAGAAAAAAAUCAUCGUAGUUAAAAUCUGUAAAAGAAAAAUACAAAAAUUUCUCAACAGAGGAUUGAGCAUCA
B14: chr4:107545374:107545375:+_ENSMUSG00000028613_ENSMUST00000106731|mus_mus|FALSE|FALSE (ssRNA)
RNA: GGGAGUUCUACAGUCCGACGAUCGUUGAUGGAUAGCCACAAAGCAUAAUUUUAUUUACAAAAAAAUCAAGCCCCUCAAACCUAAAAAAGCUCUCAACUCAAACAUCCUCUGUAAAUACUGUAUUCAAAUGAUGAGUGAAGUUUCAACAGAGGAUUGAGCAUCA
B15: chr2:48026839:48026840:+_ENSG00000116062_ENST00000540021|hu_hu|hu_hu_hu_mus_False|8_108 (ssRNA)
RNA: GGGAGUUCUACAGUCCGACGAUCAUAGUGUGCCACUAGCGUCCUAAAUCUGGAACAGUGGCGGUCAUCCGAAAACUGGCCGAUGAAAAACUUGCCCAGUGAAGUGUCCACAAAGCAAACACCAUACGCACGAGUAUGACCAGACAACAGAGGAUUGAGCAUCA
B16: chr7:117217587:117217588:+_ENSMUSG00000061079_ENSMUST00000084727|mus_hu|motif|central (ssRNA)
RNA: GGGAGUUCUACAGUCCGACGAUCGAUAUAAGCUGUGGUACCAUCUUCCAGCUGAACCGCCUGUAAUGCACUCUGGUCAUAACGGUUACUUUUAGGUAUGGGUACAUGUUGAACAUAGGCCGCAGAACCAUCUUCCAACUGAAUCAACAGAGGAUUGAGCAUCA
B17: chr12:48362563:48362564:+_ENSG00000134291_ENST00000256686|hu_hu|hu_hu_hu_mus_False|68_98 (ssRNA)
RNA: GGGAGUUCUACAGUCCGACGAUCUCCGUCAAGCCCUUCAAGCCCCACUUGCGGGGGAAACUGUAAUAAUUCUAACUGGGGAAGGAAAAGAAACGCCAAAAACUUUCCAAAAAGCGGGGGUGGGGUGAGGCGGGAGGGGGAGGUCAACAGAGGAUUGAGCAUCA
B18: 39542460_39542580_410_CDS_ENSG00000078142_ENST00000262039|human|control|control (ssRNA)
RNA: GGGAGUUCUACAGUCCGACGAUCCGAAACCGUUGUUCCUCCUACAGGCACUGCUUUUCCGGGACCAUACACAUCCCAUAUGGUGAGGGCCACUUGGGCAUUCCUGGGCAGGUCAGGGUAUUUUACUGGUAGUUUCAGCCAUUCCAACAGAGGAUUGAGCAUCA
B19: 64702431_64707660_2041_CDS_ENSMUSG00000029174_ENSMUST00000119756|mouse|control|control (ssRNA)
RNA: GGGAGUUCUACAGUCCGACGAUCUUUAAGACACGGAGUGAUUUCUUCAUAGUCAAGCUUGAGGCGUUUGUUCAGCAAAUCGUUUUCAGAGGCUUGUAGCUUCUGAUUCUCCUUCUCCAUCCUGAGCAGCAGGAUCUGCUGCAACAACAGAGGAUUGAGCAUCA
B20: chr7:7679991:7679992:-_ENSG00000106399_ENST00000396682|hu_hu|hu_hu_hu_mus_False|1_88 (ssRNA)
RNA: GGGAGUUCUACAGUCCGACGAUCUGGGAUGAAUCUUUUCCAGCUUCCCUACGAAGCACACGGGCCGGUCGAUAUACUGUGGUAACAUGCUGGCGUUGACGCGCGCUUUGGGGAGCUGCAUUAUGUCCUCCAUGAUUAUGGUCCCAACAGAGGAUUGAGCAUCA
B21: chr10:33214929:33214930:-_ENSG00000150093_ENST00000302278|hu_hu|hu_hu_hu_mus_True|8_18 (ssRNA)
RNA: GGGAGUUCUACAGUCCGACGAUCAACAAGUUCAUUGAAAAACUCUCCUCUGUCAGUAAGACUAAGCACAUUUUUGUAGCUAAAUGGGCUGGUGCAGUUUUGUUCACUUGUACAAGGGUUCCUGAGCUUAGCUGGUGUUGUGCUCAACAGAGGAUUGAGCAUCA
B22: 41082777_41082897_62_3pUTR_ENSMUSG00000036241_ENSMUST00000040008|mouse|control|control (ssRNA)
RNA: GGGAGUUCUACAGUCCGACGAUCCCUCACACUCGGGCCGGGCGGGGGCGGGCCUAAGGGAGUUGGGGGAAUCCGCUCCGGGCUCCGGGCCUCCCCCCCCCGGAGGGGGCCUCUACUUAUGGGGGGGGGAGUGGAGGUGGAAGCCAACAGAGGAUUGAGCAUCA

What follows are binders tested against T1, UNK ZnF1-3 (human, UniProt Q9C0B0 31-174) (assay: nsRBNS (natural sequence RNA bind-n-seq); RBNS binding buffer (assumed for nsRBNS): 25 mM Tris pH 7.5, 150 mM KCl, 3 mM MgCl2, 0.01% Triton X-100, 500 ug/ml BSA, 20 U/ml SUPERase-In, 4 C; UNK is unkempt and MSI1 is Musashi-1; names of the RNAs are library labels; protein concentration not given here; high values mean tight binding).
T1 sequence: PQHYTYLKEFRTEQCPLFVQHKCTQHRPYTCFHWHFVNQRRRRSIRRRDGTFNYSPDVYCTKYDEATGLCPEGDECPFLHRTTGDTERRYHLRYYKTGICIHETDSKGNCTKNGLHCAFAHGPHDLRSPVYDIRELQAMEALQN

| Binder | binding signal |
| --- | --- |
| B1 | 2.28 enrichment R |
| B2 | 1.22 enrichment R |
| B3 | 1.1 enrichment R |
| B4 | 1.35 enrichment R |
| B5 | 1.37 enrichment R |
| B6 | 1.39 enrichment R |
| B7 | 0.471 enrichment R |
| B8 | 1.35 enrichment R |
| B9 | 0.54 enrichment R |
| B10 | 0.627 enrichment R |
| B11 | 1.27 enrichment R |
| B12 | 1.14 enrichment R |
| B13 | 2.1 enrichment R |
| B14 | 1.47 enrichment R |
| B15 | 1.05 enrichment R |
| B16 | 0.849 enrichment R |
| B17 | 2.4 enrichment R |
| B18 | 1.01 enrichment R |
| B19 | 0.521 enrichment R |
| B20 | 0.48 enrichment R |
| B21 | 0.934 enrichment R |
| B22 | 1.01 enrichment R |
